The text below walks through data of US20200405890A1 (CYTOMX THERAPEUTICS, published 2020).

Test [1] addresses T1, human extracellular PD-L1 domain (R&D Systems; 156-B7-100) (human, UniProt Q9NZQ7 fragment).
T1 construct: extracellular domain; Bought reagent coated on the ELISA plate at 1 ug/mL
The test can be described thus: indirect ELISA, plate coated with human PD-L1 extracellular domain, anti-human IgG-HRP detection. On the procedure: Immunoreactivity to PD-L1 of CX-072 and CX-075 after conjugation to TFP-N-sucDf was assessed by an indirect enzyme-linked immunosorbent assay (ELISA). 96-well plates (Nunc Maxisorp) were coated with 1 μg/mL human extracellular PD-L1 domain (R&D Systems; 156-B7-100) diluted in PBS (Givco; 0.7 mM sodium phosphate, 1.5 mM potassium phosphate, 154 mM sodium chloride, pH 7.2) and incubated overnight at 4° C. Wells were blocked for 2 hours at room temperature (RT) with 1% bovine serum albumin (Sigma-Adrich), 0.05% Tween 20 in PBS. After blocking, plates were incubated with either unconjugated CX-072, PbCtrl or CX-075 or their respective N-sucDf-conjugates in a concentration ranging from 0.00914 to 600 nM for 60 minutes at RT. Plates were subsequently washed with 0.05% Tween 20 in PBS and incubated with horseradish peroxidase-labeled anti-human IgG antibody (Sigma-Aldrich; A0293) for 60 minutes at RT. Detection was performed with single-component TMB peroxidase substrate (BioRad) and optical density read-out was performed at 450 nm using a micro plate-reader. Immunoreactivity to PD-L1 was expressed as the effective concentration needed for 50% of receptor occupation (EC50).
For orientation: An ELISA detects its analyte on a solid surface through an enzyme-linked reagent.

The target in test [2] is T2, PD-L1 in mouse spleen tissue (mouse, UniProt Q9EP73).
T2 construct: whole, on cells; Endogenous mouse target in vivo; the species follows from the host animal; also called PD-L1 expressing spleen tissue
T2 sequence (Q9EP73 19-290): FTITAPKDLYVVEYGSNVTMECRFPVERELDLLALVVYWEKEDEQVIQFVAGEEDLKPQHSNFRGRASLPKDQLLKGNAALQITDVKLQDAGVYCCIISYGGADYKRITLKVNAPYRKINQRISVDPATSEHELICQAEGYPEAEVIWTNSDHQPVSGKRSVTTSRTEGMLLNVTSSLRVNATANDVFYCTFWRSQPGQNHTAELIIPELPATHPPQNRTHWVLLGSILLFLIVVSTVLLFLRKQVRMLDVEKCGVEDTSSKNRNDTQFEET
The test can be described thus: PET quantification of spleen uptake in Balb/c nude mice, day 6 p.i. On the procedure: Animals used for imaging and biodistribution studies were injected intravenously into the penile vein with 150 μl tracer solution, containing 10 μg ⁸⁹Zr-CX-072. 10 μg 89Zr-labeled non-binding isotype activatable antibody control (⁸⁹Zr-PBCtrl), or 10 g ⁸⁹Zr-CX-075 (5 MB1±0.5 MBq, 10 μg supplemented with 0, 40, 240 μg non-radiolabeled CX-072 or non-radiolabeled PBCtrl) resulting in total protein doses of 10, 50, 250 μg). Mice were subsequently scanned after 24, 72, and 144 h (i.e., 1 day, 3 days, and 6 days, respectively) post-injection (p.i.) using a Focus 220 microPET (CTI Molecular Imaging, Inc.) and subsequently sacrificed after the final scan. Organs of interest were excised, cleaned from blood and weighed. Samples and primed standards were counted in a calibrated well-type gamma-counter for radioactivity, and results expressed as percentage of injected dose per gram tissue (% ID/g).

Chain of UniProt Q9NZQ7 (Q9NZQ7 19-238): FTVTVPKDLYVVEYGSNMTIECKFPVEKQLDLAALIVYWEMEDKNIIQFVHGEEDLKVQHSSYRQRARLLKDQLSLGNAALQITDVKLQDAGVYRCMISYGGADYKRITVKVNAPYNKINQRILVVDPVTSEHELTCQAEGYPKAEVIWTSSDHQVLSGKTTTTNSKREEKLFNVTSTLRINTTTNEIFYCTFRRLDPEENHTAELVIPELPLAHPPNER

B1: CX-072-N-sucDf (activatable anti-PD-L1 antibody CX-072 conjugated with N-succinyldesferal) (antibody)
heavy: EVQLLESGGGLVQPGGSLRLSCAASGFTFSSYAMSWVRQAPGKGLEWVSSIWRNGIVTVYADSVKGRFTISRDNSKNTLYLQMNSLRAEDTAVYYCAKWSAAFDYWGQGTLVTVSSASTKGPSVFPLAPCSRSTSESTAALGCLVKDYFPEPVTVSWNSGALTSGVHTFPAVLQSSGLYSLSSVVTVPSSSLGTKTYTCNVDHKPSNTKVDKRV[letters of human IgG4 Fc with S228P (EU numbers) left out]
light: QGQSGSGIALCPSHFCQLPQTGGGSSGGSGGSGGISSGLLSGRSDNHGGSDIQMTQSPSSLSASVGDRVTITCRASQSISSYLNWYQQKPGKAPKLLIYAASSLQSGVPSRFSGSGSGTDFTLTISSLQPEDFATYYCQQDNGYPSTFGGGTKVEIKRTVAAPSVFIFPPSDEQLKSGTASVVCLLNNFYPREAKVQWKVDNALQSGNSQESVTEQDSKDSTYSLSSTLTLSKADYEKHKVYACEVTHQGLSSPVTKSFNRGEC
notes: It carries the chelator N-succinyldesferrioxamine (N-sucDf); also called Df-Suc-N-CX-072; N-sucDf conjugate of CX-072
Turning to B1, the binding result in test [1] was “binds”.

B2: CX-075-N-sucDf (parental anti-PD-L1 antibody CX-075 conjugated with N-succinyldesferal) (antibody)
heavy: B1 heavy
light: DIQMTQSPSSLSASVGDRVTITCRASQSISSYLNWYQQKPGKAPKLLIYAASSLQSGVPSRFSGSGSGTDFTLTISSLQPEDFATYYCQQDNGYPSTFGGGTKVEIKRTVAAPSVFIFPPSDEQLKSGTASVVCLLNNFYPREAKVQWKVDNALQSGNSQESVTEQDSKDSTYSLSSTLTLSKADYEKHKVYACEVTHQGLSSPVTKSFNRGEC
notes: It carries the N-sucDf chelator; also called Df-Suc-N-CX-075; PDL1-Ab
In the case of B2, the binding result in test [1] was “binds”.

B3: 89Zr-CX-075 (radiolabeled parental anti-PD-L1 antibody) (antibody)
heavy: B1 heavy
light: B2 light
notes: 89Zr is chelated by N-sucDf conjugated to CX-075; also called 89Zr-PDL1-Ab
For B3, in test [2], the binding result is on record as “binds”.
